In the supplement of paper PMC12217912:
Some of the results follow. The full chains were built here from the parent and the listed change. Inactive controls read about 0.05.

B1: TEV protease; numbered along this chain (parent)
chain: MGESLFKGPRDYNPISSSICHLTNESDGHTTSLYGIGFGPFIITNKHLFRRNNGTLVVQSLHGVFKVKDTTTLQQHLVDGRDMIIIRMPKDFPPFPQKLKFREPQREERICLVTTNFQTKSMSSMVSDTSCTFPSGDGIFWKHWIQTKDGQCGSPLVSTRDGFIVGIHSASNFTNTNNYFTSVPKNFMELLTNQEAQQWVSGWRLNADSVLWGGHKVFMVKPEEPFQPVKEATQL

Variants of: B1
Assay: raw area under fraction-flipped curve 0-4 h after induction (AUC4h, not background-subtracted), DNA-recorder readout of cleavage of the substrate (dimensionless); higher = more cleavage of the substrate by the protease variant
Conditions: temperature: 34 °C; time window: 0-4 h after rhamnose induction
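Further: Bxb1 expression induced with 0.2% (w/v) L-rhamnose at OD600 near 0.5, cultures sampled hourly, flipped fraction per protease–substrate barcode pair counted by paired-end Illumina sequencing.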

Variant	area with substrate ENLYEQS	area with substrate ENLYGQS	area with substrate ENLYKQS	area with substrate ENLYPQS	area with substrate ENLYTQS	area with substrate ENLYVQS	area with substrate ENLYWQS	area with substrate ENLYHQS	area with substrate ENLYNQS	area with substrate ENLYQQS	area with substrate ENLYRQS	area with substrate ENLYYQS	area with substrate ENLYDQS	area with substrate ENLYIQS	area with substrate ENLYLQS	area with substrate ENLYMQS	area with substrate ENLYSQS
MGESLFKGPRDYNPISSSICHLTNESDGHTTSLYGIGFGPFIITNKHLFRRNNGTLVVQSLHGVFKVKDTTTLQQHLVDGRDMIIIRMPKDFPPFPQKLKFREPQREERICLVTTNFQTKSMSSMVSDTSCTFPSGDGIFWKHWIQTKDGQCGSPLVSTRDGFIVGIHSASNFTNTNNYFTSVPKNFMELLTNQEAQQWVSGWRLNADSVLWGGHKVFMVKPEEPFQPVKEFTQL [A232F]	0.0602	0.0544	0.0224	0.0737	0.0778	0.111	0.076	–	–	–	–	–	–	–	–	–	–
MGESLFKGPRDYNPISSSICHLTNESDGHTTSLYGIGFGPFIITNKHLFRRNNGTLVVQSLHGVFKVKDTTTLQQHLVDPRDMIIIRMPKDFPPFPQKLKFREPQREERICLVTTNFQTKSMSSMVSDTSCTFPSGDGIFWKHWIQTKDGQCGSPLVSTRDGFIVGIHSASNFTNTNNYFTSVPKNFMELLTNQEAQQWVSGWRLNADSVLWGGHKVFMVKPEEPFQPVKEATQL [G80P]	0.0426	–	–	–	–	–	0.0646	0.053	0.0579	–	–	–	–	–	–	–	–
MGESLFKGPRDYNPISSSICHLTNESDGHTTSLYGIGFGPFIITNKHLFRRNNGTLVVQSLHGVFKVKDTTTLQQHLVDTRDMIIIRMPKDFPPFPQKLKFREPQREERICLVTTNFQTKSMSSMVSDTSCTFPSGDGIFWKHWIQTKDGQCGSPLVSTRDGFIVGIHSASNFTNTNNYFTSVPKNFMELLTNQEAQQWVSGWRLNADSVLWGGHKVFMVKPEEPFQPVKEATQL [G80T]	0.0684	–	0.0819	0.0491	–	–	0.0774	0.0538	0.0656	0.0608	0.0599	0.055	–	–	–	–	–
MGESLFKGPRDYNPISSSICHLTNESDTHTTSLYGIGFGPFIITNKHLFRRNNGTLVVQSLHGVFKVKDTTTLQQHLVDGRDMIIIRMPKDFPPFPQKLKFREPQREERICLVTTNFQTKSMSSMVSDTSCTFPSGDGIFWKHWIQTKDGQCGSPLVSTRDGFIVGIHSASNFTNTNNYFTSVPKNFMELLTNQEAQQWVSGWRLNADSVLWGGHKVFMVKPEEPFQPVKEATQL [G28T]	0.0612	0.0748	0.0607	0.0705	0.0593	–	0.0653	0.0657	0.0569	0.0581	0.0439	–	0.0637	0.124	0.0815	0.0664	0.0588
MGESLFKGPRDYNPISSSICHLTNESDGHTTSLYGIGFGPFIITNKHLFRRNNGTLVVQSLHGVFKVKDTTTLQQHLVDGRDMIIIRMPKDFPPFPQKLKFREPQREERICLVTTNFQTKSMSSMVSWTSCTFPSGDGIFWKHWIQTKDGQCGSPLVSTRDGFIVGIHSASNFTNTNNYFTSVPKNFMELLTNQEAQQWVSGWRLNADSVLWGGHKVFMVKPEEPFQPVKEATQL [D128W]	0.0862	–	0.0457	–	0.158	–	–	0.0815	0.0576	0.1	0.0644	–	–	0.138	–	0.173	0.168
MGESLFKGPRDYNPISSSICHLTNESDGHTTSLYGIGFGPFIITNKHLFRRNNGTLVVQSLHGVFKVKDTTTLQQHLVDGRDMIIIRMPKDFPPFPQKLKFREPQREERICLVTTNFQTKSMSSMVSRTSCTFPSGDGIFWKHWIQTKDGQCGSPLVSTRDGFIVGIHSASNFTNTNNYFTSVPKNFMELLTNQEAQQWVSGWRLNADSVLWGGHKVFMVKPEEPFQPVKEATQL [D128R]	0.121	0.0878	0.0132	0.0703	–	0.143	0.109	0.0632	0.0578	–	0.0557	–	0.076	0.111	–	0.118	–
MGESLFKGPRDYNPISSSICHLTNESDGHTTSLYGIGFGPFIITNKHLFRRNNGTLVVQSLHGVFKVKDTTTLQQHLVDGRDMIIIRMPKDFPPFPQKLKFREPQREERICLVTTNFQTKSMSSMVSDTSCTFPSGDGIFWKHWIQTKDGQCGSPLVSTKDGFIVGIHSASNFTNTNNYFTSVPKNFMELLTNQEAQQWVSGWRLNADSVLWGGHKVFMVKPEEPFQPVKEATQL [R160K]	0.0709	0.0697	0.0649	0.0796	–	–	0.0621	–	0.0678	–	–	0.0573	–	0.109	–	0.12	–
MGESLFKGPRDYNPISSSICHLTNESDGHTTSLYGIGFGPFIITNKHLFRRNNGTLVVQSLHGVFKVKDTTTLQQHLVDGRDMIIIRMPKDFPPFPQKLKFREPQREERICLVTTNFQTKSMSSMVSDTSCTFPSGDGIFWKHRIQTKDGQCGSPLVSTRDGFIVGIHSASNFTNTNNYFTSVPKNFMELLTNQEAQQWVSGWRLNADSVLWGGHKVFMVKPEEPFQPVKEATQL [W144R]	0.0951	0.0595	–	0.0486	–	–	–	0.0779	–	–	0.0701	0.0669	–	0.1	–	0.0823	–
MGESLFKGPRDYNPISSSICHLTNESDGHTTSLYGIGFGPFIITNKHLFRRNNGTLVVQSLHGVFKVKDTTSLQQHLVDGRDMIIIRMPKDFPPFPQKLKFREPQREERICLVTTNFQTKSMSSMVSDTSCTFPSGDGIFWKHWIQTKDGQCGSPLVSTRDGFIVGIHSASNFTNTNNYFTSVPKNFMELLTNQEAQQWVSGWRLNADSVLWGGHKVFMVKPEEPFQPVKEATQL [T72S]	0.0643	0.0662	–	0.0765	0.0922	–	0.0741	0.0754	0.0652	–	–	0.0843	–	–	–	0.0874	0.0768
MGESLFKGPRDYNPISSSICHLTNESDGHTTWLYGIGFGPFIITNKHLFRRNNGTLVVQSLHGVFKVKDTTTLQQHLVDGRDMIIIRMPKDFPPFPQKLKFREPQREERICLVTTNFQTKSMSSMVSDTSCTFPSGDGIFWKHWIQTKDGQCGSPLVSTRDGFIVGIHSASNFTNTNNYFTSVPKNFMELLTNQEAQQWVSGWRLNADSVLWGGHKVFMVKPEEPFQPVKEATQL [S32W]	0.0657	0.0723	0.0711	0.0748	–	0.127	0.101	0.0623	0.0679	0.0579	0.0359	0.0747	0.0739	0.14	0.1	0.0957	0.0659
